Test results reported in paper PMC3063775.
Positions count from the first letter of the chain named. Like-named read-outs stand apart in the source and are kept apart here. These are yes or no findings as the source states them, for the method shown. Binding seen in cells or lysates may run through a third protein. Some results given as binding are weak or reduced against the parent protein; the word gives no strength. For some of these results: Tags and fused reporters may be left off the sequences shown.

Protein sequences, listed by entry. Tags and fused reporters are not part of them.
UniProt Q14457: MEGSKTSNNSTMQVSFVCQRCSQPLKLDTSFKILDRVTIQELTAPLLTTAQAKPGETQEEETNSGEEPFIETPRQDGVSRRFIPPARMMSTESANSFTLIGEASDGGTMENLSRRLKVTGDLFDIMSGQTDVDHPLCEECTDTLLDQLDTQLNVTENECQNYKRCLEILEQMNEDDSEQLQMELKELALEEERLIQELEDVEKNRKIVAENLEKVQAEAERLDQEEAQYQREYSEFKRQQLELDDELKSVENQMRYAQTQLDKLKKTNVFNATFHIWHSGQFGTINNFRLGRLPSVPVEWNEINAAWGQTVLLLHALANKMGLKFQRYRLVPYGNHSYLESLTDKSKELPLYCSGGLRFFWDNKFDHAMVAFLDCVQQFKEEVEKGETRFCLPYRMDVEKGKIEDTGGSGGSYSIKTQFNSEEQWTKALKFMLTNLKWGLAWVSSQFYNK
UniProt Q9EQW7: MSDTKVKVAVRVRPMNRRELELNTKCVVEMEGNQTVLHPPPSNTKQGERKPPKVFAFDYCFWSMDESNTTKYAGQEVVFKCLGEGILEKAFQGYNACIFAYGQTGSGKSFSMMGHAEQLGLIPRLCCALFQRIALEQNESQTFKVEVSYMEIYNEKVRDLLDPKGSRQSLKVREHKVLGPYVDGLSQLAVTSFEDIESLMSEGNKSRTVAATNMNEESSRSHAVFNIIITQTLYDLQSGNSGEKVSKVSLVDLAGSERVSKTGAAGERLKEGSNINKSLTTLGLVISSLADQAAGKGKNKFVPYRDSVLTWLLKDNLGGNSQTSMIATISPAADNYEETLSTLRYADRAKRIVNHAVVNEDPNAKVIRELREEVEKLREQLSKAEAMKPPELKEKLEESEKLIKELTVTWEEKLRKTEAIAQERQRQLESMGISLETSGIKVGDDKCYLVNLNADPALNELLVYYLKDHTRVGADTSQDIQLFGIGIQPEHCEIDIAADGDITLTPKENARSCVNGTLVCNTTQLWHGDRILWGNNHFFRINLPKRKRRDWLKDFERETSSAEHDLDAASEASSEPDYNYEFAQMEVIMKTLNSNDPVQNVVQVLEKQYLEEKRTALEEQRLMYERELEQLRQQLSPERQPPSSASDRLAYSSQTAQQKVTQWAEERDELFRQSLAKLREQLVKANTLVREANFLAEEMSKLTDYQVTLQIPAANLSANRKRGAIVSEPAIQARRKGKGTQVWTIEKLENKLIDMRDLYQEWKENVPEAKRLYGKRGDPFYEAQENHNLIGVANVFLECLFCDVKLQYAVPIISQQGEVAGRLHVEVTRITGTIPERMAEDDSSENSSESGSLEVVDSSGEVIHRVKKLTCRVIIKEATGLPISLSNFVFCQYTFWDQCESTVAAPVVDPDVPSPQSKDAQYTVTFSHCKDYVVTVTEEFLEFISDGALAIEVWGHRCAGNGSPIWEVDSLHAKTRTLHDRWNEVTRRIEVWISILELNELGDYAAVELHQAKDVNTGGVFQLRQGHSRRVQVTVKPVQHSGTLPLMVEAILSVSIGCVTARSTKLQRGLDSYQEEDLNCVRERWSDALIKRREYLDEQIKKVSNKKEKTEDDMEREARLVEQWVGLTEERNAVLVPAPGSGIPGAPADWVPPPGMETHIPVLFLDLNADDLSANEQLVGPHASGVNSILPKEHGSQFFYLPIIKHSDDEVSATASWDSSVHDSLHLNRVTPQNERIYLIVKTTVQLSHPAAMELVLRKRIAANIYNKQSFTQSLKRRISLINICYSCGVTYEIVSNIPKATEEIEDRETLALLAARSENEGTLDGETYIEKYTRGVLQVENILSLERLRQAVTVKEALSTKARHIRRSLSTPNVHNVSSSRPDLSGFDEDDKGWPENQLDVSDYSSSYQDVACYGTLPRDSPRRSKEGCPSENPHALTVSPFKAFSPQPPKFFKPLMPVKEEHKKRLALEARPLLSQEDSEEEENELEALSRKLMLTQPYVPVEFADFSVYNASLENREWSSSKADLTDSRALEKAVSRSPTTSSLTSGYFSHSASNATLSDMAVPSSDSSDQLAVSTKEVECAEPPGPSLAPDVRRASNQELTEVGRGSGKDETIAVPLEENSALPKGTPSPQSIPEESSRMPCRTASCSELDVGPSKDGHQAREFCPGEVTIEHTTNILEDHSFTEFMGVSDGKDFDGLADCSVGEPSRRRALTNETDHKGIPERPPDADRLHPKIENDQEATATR

Columns and labels:
[1] = target: T1, GST-FYVE-CENT C-terminus (1807-2539) (human) (UniProt Q68DK2); assay: pull-down; recombinant GST fusion proteins immobilized on glutathione-Sepharose beads, incubated with lysates of HeLa cells transiently over-expressing the myc-tagged protein; immunoblot; only the target purified
T1 sequence: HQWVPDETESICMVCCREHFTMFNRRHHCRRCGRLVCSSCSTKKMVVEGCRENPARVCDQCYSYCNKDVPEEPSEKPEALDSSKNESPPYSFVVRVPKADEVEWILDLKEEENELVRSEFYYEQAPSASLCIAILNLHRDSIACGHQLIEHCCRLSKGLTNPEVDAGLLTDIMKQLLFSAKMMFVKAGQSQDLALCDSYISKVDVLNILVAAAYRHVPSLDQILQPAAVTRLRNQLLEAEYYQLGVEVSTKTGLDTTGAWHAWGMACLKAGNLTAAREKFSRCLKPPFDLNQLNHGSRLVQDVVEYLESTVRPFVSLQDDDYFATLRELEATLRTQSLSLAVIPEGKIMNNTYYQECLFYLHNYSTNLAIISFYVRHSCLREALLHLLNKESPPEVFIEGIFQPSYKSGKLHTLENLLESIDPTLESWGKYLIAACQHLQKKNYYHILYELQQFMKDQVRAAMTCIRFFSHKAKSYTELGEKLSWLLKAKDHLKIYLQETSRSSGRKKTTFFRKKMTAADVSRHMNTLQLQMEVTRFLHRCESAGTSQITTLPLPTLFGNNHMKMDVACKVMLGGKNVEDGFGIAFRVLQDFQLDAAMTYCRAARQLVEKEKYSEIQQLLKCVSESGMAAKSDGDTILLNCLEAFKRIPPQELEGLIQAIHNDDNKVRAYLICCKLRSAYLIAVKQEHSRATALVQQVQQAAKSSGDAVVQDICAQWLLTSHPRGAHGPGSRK

[2] = target: T2, GST-FYVE-CENT C-terminus (1807-2539) mutant R1945Q (human) (UniProt Q68DK2); assay: as above
T2 sequence: T1 sequence with R139Q

[3] = target: T3, GST-FYVE-CENT C-terminus (amino acid residues 2120-2539) (human) (UniProt Q68DK2); assay: as above
T3 sequence: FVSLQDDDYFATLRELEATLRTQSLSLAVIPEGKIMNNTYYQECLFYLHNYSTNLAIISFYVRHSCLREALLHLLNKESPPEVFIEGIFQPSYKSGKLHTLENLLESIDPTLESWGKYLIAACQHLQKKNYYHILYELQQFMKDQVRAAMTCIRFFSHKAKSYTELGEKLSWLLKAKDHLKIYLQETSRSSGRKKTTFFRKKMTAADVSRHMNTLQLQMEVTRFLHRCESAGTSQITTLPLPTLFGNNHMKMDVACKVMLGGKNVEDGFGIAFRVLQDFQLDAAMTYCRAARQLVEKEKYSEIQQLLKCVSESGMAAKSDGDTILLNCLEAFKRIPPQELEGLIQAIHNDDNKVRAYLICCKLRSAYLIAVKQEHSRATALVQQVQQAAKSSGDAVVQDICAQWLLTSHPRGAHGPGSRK

[4] = target: endogenous FYVE-CENT (wild type) (human (endogenous in HeLa and HCC-1395)) (UniProt Q68DK2); assay: co-IP; HCC-1395 (control) and HCC-1954 (FYVE-CENT R1945Q) cell lysates; rabbit antibody against FYVE-CENT on Protein A beads, 1 h at 4°C; blot with anti-Beclin 1 and anti-FYVE-CENT
[5] = target: endogenous FYVE-CENT R1945Q mutant protein from HCC-1954 breast cancer cells (human (endogenous in HCC-1954)) (UniProt Q68DK2); assay: as above
[6] = target: endogenous FYVE-CENT (wild type) (human (endogenous in HeLa and HCC-1395)) (UniProt Q68DK2); assay: co-IP; HeLa cell lysate; rabbit antibody against FYVE-CENT on Protein A beads, 1 h at 4°C; blot with anti-Beclin 1 and anti-FYVE-CENT
[7] = target: T1, GST-FYVE-CENT C-terminus (1807-2539) (human); assay: pull-down; recombinant GST fusion proteins immobilized on glutathione-Sepharose beads, incubated with lysates of HeLa cells transiently over-expressing the myc-tagged protein; immunoblot; only the target purified; remark: listed apart in the source
[8] = target: T2, GST-FYVE-CENT C-terminus (1807-2539) mutant R1945Q (human); assay: as above; remark: listed apart in the source

With “myc-Beclin 1 (from UniProt Q14457 1-450)” the binding [1] was “binds”, the binding [2] was “no binding” and the binding [3] was “binds”.

“myc-epitope-tagged mouse KIF13A (from UniProt Q9EQW7 1-1749)” was tested, and the binding [1] was “binds” and the binding [2] was “binds”.

“endogenous Beclin 1 (from UniProt Q14457 1-450)” was tested, and the binding [4] was “binds”, the binding [5] was “no binding” and the binding [6] was “binds”.

B1: myc-TTC19 (protein, UniProt Q6DKK2 71-380)
chain: AAEEEEQQGADGAAAEDGADEAEAEIIQLLKRAKLSIMKDEPEEAELILHDALRLAYQTDNKKAITYTYDLMANLAFIRGQLENAEQLFKATMSYLLGGGMKQEDNAIIEISLKLASIYAAQNRQEFAVAGYEFCISTLEEKIEREKELAEDIMSVEEKANTHLLLGMCLDACARYLLFSKQPSQAQRMYEKALQISEEIQGERHPQTIVLMSDLATTLDAQGRFDEAYIYMQRASDLARQINHPELHMVLSNLAAVLMHRERYTQAKEIYQEALKQAKLKKDEISVQHIREELAELSKKSRPLTNSVKL
For B1, the binding [7] was “binds” and the binding [8] was “binds”.
